Experimental data published in patent publication US20210147536A1 (MAB VENTURE BIOPHARM, published 2021).

Target: T1, human LAG-3 on the cell surface (human, UniProt P18627 23-525)
T1 construct: whole, on cells; also called cells expressing the human LAG-3
T1 sequence (looked up): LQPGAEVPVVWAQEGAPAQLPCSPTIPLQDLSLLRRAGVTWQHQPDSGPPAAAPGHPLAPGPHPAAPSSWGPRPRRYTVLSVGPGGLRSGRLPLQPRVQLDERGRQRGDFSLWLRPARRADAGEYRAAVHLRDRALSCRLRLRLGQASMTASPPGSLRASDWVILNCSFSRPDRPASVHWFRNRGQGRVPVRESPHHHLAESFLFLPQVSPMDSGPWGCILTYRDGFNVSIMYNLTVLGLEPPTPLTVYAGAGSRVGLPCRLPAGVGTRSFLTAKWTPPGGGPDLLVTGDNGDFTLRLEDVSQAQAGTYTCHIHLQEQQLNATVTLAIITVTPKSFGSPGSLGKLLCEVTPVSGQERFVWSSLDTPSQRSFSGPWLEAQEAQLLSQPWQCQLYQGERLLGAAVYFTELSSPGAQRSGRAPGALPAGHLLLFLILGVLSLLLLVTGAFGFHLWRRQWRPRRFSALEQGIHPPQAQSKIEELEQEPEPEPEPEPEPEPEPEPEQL
Assay: flow cytometry, soluble scFv supernatant on activated human CD4+ T cells, anti-His-PE

B1: scFv single chain antibody 11471 (scFv)
scFv: RVRLQESGPGLVKPSQTLSLTCTVSGGSISSSNWWSWVRQPPGKGLEWIGEIYHSGSTNYNPSLKSRVTISVDKSKNQFSLKLSSVTAADTAVYYCARDRAIRDAFDIWGQGTTVTVSSGGGGSGGGGSGGGGSGGGGAS[about 100 residues omitted]LFGGGTKLEIK
notes: From phagemid pCLS1.0, which adds a C-terminal Myc-His tag
binding result: binds
